Source: US20210238308A1 (Chugai, published 2021)

B1: MRAH-G1d/MRAL-KT0 Y436D (antibody, human IgG1, kappa)
heavy: QVQLQESGPGLVRPSQTLSLTCTVSGYSITSDHAWSWVRQPPGRGLEWIGYISYSGITTYNPSLKSRVTMLRDTSKNQFSLRLSSVTAADTAVYYCARSLARTTAMDYWGQGSLVTVSS[human IgG1 constant region with Y436D (EU numbers) omitted here]
light: DIQMTQSPSSLSASVGDRVTITCRASQDISSYLNWYQQKPGKAPKLLIYYTSRLHSGVPSRFSGSGSGTDFTFTISSLQPEDIATYYCQQGNTLPYTFGQGTKVEIKRTVAAPSVFIFPPSDEQLKSGTASVVCLLNNFYPREAKVQWKVDNALQSGNSQESVTEQDSKDSTYSLSSTLTLSKADYEKHKVYACEVTHQGLSSPVTKSFNRGEC
notes: copies: 2 + 2
B2: MRAH-G1d/MRAL-KT0 Y436L (antibody, human IgG1, kappa)
heavy: QVQLQESGPGLVRPSQTLSLTCTVSGYSITSDHAWSWVRQPPGRGLEWIGYISYSGITTYNPSLKSRVTMLRDTSKNQFSLRLSSVTAADTAVYYCARSLARTTAMDYWGQGSLVTVSS[human IgG1 constant region with Y436L (EU numbers) omitted here]
light: DIQMTQSPSSLSASVGDRVTITCRASQDISSYLNWYQQKPGKAPKLLIYYTSRLHSGVPSRFSGSGSGTDFTFTISSLQPEDIATYYCQQGNTLPYTFGQGTKVEIKRTVAAPSVFIFPPSDEQLKSGTASVVCLLNNFYPREAKVQWKVDNALQSGNSQESVTEQDSKDSTYSLSSTLTLSKADYEKHKVYACEVTHQGLSSPVTKSFNRGEC
notes: copies: 2 + 2
B3: MRAH-G1d/MRAL-KT0 Y436E (antibody, human IgG1, kappa)
heavy: QVQLQESGPGLVRPSQTLSLTCTVSGYSITSDHAWSWVRQPPGRGLEWIGYISYSGITTYNPSLKSRVTMLRDTSKNQFSLRLSSVTAADTAVYYCARSLARTTAMDYWGQGSLVTVSS[human IgG1 constant region with Y436E (EU numbers) omitted here]
light: DIQMTQSPSSLSASVGDRVTITCRASQDISSYLNWYQQKPGKAPKLLIYYTSRLHSGVPSRFSGSGSGTDFTFTISSLQPEDIATYYCQQGNTLPYTFGQGTKVEIKRTVAAPSVFIFPPSDEQLKSGTASVVCLLNNFYPREAKVQWKVDNALQSGNSQESVTEQDSKDSTYSLSSTLTLSKADYEKHKVYACEVTHQGLSSPVTKSFNRGEC
notes: copies: 2 + 2
B4: MRAH-G1d/MRAL-KT0 Y436R (antibody, human IgG1, kappa)
heavy: QVQLQESGPGLVRPSQTLSLTCTVSGYSITSDHAWSWVRQPPGRGLEWIGYISYSGITTYNPSLKSRVTMLRDTSKNQFSLRLSSVTAADTAVYYCARSLARTTAMDYWGQGSLVTVSS[human IgG1 constant region with Y436R (EU numbers) omitted here]
light: DIQMTQSPSSLSASVGDRVTITCRASQDISSYLNWYQQKPGKAPKLLIYYTSRLHSGVPSRFSGSGSGTDFTFTISSLQPEDIATYYCQQGNTLPYTFGQGTKVEIKRTVAAPSVFIFPPSDEQLKSGTASVVCLLNNFYPREAKVQWKVDNALQSGNSQESVTEQDSKDSTYSLSSTLTLSKADYEKHKVYACEVTHQGLSSPVTKSFNRGEC
notes: copies: 2 + 2
B5: MRAH-G1d/MRAL-KT0 Y436Q (antibody, human IgG1, kappa)
heavy: QVQLQESGPGLVRPSQTLSLTCTVSGYSITSDHAWSWVRQPPGRGLEWIGYISYSGITTYNPSLKSRVTMLRDTSKNQFSLRLSSVTAADTAVYYCARSLARTTAMDYWGQGSLVTVSS[human IgG1 constant region with Y436Q (EU numbers) omitted here]
light: DIQMTQSPSSLSASVGDRVTITCRASQDISSYLNWYQQKPGKAPKLLIYYTSRLHSGVPSRFSGSGSGTDFTFTISSLQPEDIATYYCQQGNTLPYTFGQGTKVEIKRTVAAPSVFIFPPSDEQLKSGTASVVCLLNNFYPREAKVQWKVDNALQSGNSQESVTEQDSKDSTYSLSSTLTLSKADYEKHKVYACEVTHQGLSSPVTKSFNRGEC
notes: copies: 2 + 2
B6: MRAH-G1d/MRAL-KT0 Y436F (antibody, human IgG1, kappa)
heavy: QVQLQESGPGLVRPSQTLSLTCTVSGYSITSDHAWSWVRQPPGRGLEWIGYISYSGITTYNPSLKSRVTMLRDTSKNQFSLRLSSVTAADTAVYYCARSLARTTAMDYWGQGSLVTVSS[human IgG1 constant region with Y436F (EU numbers) omitted here]
light: DIQMTQSPSSLSASVGDRVTITCRASQDISSYLNWYQQKPGKAPKLLIYYTSRLHSGVPSRFSGSGSGTDFTFTISSLQPEDIATYYCQQGNTLPYTFGQGTKVEIKRTVAAPSVFIFPPSDEQLKSGTASVVCLLNNFYPREAKVQWKVDNALQSGNSQESVTEQDSKDSTYSLSSTLTLSKADYEKHKVYACEVTHQGLSSPVTKSFNRGEC
notes: copies: 2 + 2
B7: MRAH-G1d/MRAL-KT0 Y436S (antibody, human IgG1, kappa)
heavy: QVQLQESGPGLVRPSQTLSLTCTVSGYSITSDHAWSWVRQPPGRGLEWIGYISYSGITTYNPSLKSRVTMLRDTSKNQFSLRLSSVTAADTAVYYCARSLARTTAMDYWGQGSLVTVSS[human IgG1 constant region with Y436S (EU numbers) omitted here]
light: DIQMTQSPSSLSASVGDRVTITCRASQDISSYLNWYQQKPGKAPKLLIYYTSRLHSGVPSRFSGSGSGTDFTFTISSLQPEDIATYYCQQGNTLPYTFGQGTKVEIKRTVAAPSVFIFPPSDEQLKSGTASVVCLLNNFYPREAKVQWKVDNALQSGNSQESVTEQDSKDSTYSLSSTLTLSKADYEKHKVYACEVTHQGLSSPVTKSFNRGEC
notes: copies: 2 + 2
B8: MRAH-G1d/MRAL-KT0 Y436G (antibody, human IgG1, kappa)
heavy: QVQLQESGPGLVRPSQTLSLTCTVSGYSITSDHAWSWVRQPPGRGLEWIGYISYSGITTYNPSLKSRVTMLRDTSKNQFSLRLSSVTAADTAVYYCARSLARTTAMDYWGQGSLVTVSS[human IgG1 constant region with Y436G (EU numbers) omitted here]
light: DIQMTQSPSSLSASVGDRVTITCRASQDISSYLNWYQQKPGKAPKLLIYYTSRLHSGVPSRFSGSGSGTDFTFTISSLQPEDIATYYCQQGNTLPYTFGQGTKVEIKRTVAAPSVFIFPPSDEQLKSGTASVVCLLNNFYPREAKVQWKVDNALQSGNSQESVTEQDSKDSTYSLSSTLTLSKADYEKHKVYACEVTHQGLSSPVTKSFNRGEC
notes: copies: 2 + 2
B9: MRAH-G1d/MRAL-KT0 Y436M (antibody, human IgG1, kappa)
heavy: QVQLQESGPGLVRPSQTLSLTCTVSGYSITSDHAWSWVRQPPGRGLEWIGYISYSGITTYNPSLKSRVTMLRDTSKNQFSLRLSSVTAADTAVYYCARSLARTTAMDYWGQGSLVTVSS[human IgG1 constant region with Y436M (EU numbers) omitted here]
light: DIQMTQSPSSLSASVGDRVTITCRASQDISSYLNWYQQKPGKAPKLLIYYTSRLHSGVPSRFSGSGSGTDFTFTISSLQPEDIATYYCQQGNTLPYTFGQGTKVEIKRTVAAPSVFIFPPSDEQLKSGTASVVCLLNNFYPREAKVQWKVDNALQSGNSQESVTEQDSKDSTYSLSSTLTLSKADYEKHKVYACEVTHQGLSSPVTKSFNRGEC
notes: copies: 2 + 2
B10: MRAH-G1d/MRAL-KT0 Y436K (antibody, human IgG1, kappa)
heavy: QVQLQESGPGLVRPSQTLSLTCTVSGYSITSDHAWSWVRQPPGRGLEWIGYISYSGITTYNPSLKSRVTMLRDTSKNQFSLRLSSVTAADTAVYYCARSLARTTAMDYWGQGSLVTVSS[human IgG1 constant region with Y436K (EU numbers) omitted here]
light: DIQMTQSPSSLSASVGDRVTITCRASQDISSYLNWYQQKPGKAPKLLIYYTSRLHSGVPSRFSGSGSGTDFTFTISSLQPEDIATYYCQQGNTLPYTFGQGTKVEIKRTVAAPSVFIFPPSDEQLKSGTASVVCLLNNFYPREAKVQWKVDNALQSGNSQESVTEQDSKDSTYSLSSTLTLSKADYEKHKVYACEVTHQGLSSPVTKSFNRGEC
notes: copies: 2 + 2

Assays:
Assay in all cases: SPR, Protein L capture
[1] = biological target: T1, PRYSPRY domain of human TRIM21 with N-terminal 6xHis tag (human)
T1 construct: Expressed in E. coli; also called hTRIM21; human TRIM21.PRYSPRY
T1 chain: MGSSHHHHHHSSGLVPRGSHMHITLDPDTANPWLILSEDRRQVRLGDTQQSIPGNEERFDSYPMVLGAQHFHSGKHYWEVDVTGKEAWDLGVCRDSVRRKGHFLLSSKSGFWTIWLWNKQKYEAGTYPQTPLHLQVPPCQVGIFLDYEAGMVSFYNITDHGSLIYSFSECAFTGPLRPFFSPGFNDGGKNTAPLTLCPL

[2] = biological target: T2, PRYSPRY domain of mouse TRIM21 with N-terminal 6xHis tag (mouse)
T2 construct: Expressed in E. coli; also called mTRIM21; mouse TRIM21.PRYSPRY
T2 chain: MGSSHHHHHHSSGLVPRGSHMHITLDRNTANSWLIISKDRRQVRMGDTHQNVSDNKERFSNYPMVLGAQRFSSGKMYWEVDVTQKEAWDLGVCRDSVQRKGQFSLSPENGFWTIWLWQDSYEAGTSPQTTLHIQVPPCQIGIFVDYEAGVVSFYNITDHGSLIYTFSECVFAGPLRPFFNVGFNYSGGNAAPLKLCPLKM

human FcRn = biological target: T3, human FcRn (human, UniProt P55899 partial chain; P61769 partial chain, limits assumed)
human FcRn, sequence (P55899 24-290 limits assumed, form in doubt, chain 1 of 2): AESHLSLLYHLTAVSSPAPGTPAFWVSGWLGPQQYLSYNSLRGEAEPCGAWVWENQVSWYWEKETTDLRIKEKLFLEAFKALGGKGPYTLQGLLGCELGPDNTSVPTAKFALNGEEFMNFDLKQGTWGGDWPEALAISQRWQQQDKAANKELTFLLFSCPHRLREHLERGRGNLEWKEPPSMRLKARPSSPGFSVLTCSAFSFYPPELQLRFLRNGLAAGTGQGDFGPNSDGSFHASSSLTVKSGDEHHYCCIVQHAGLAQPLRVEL
human FcRn, sequence (P61769 21-119 limits assumed, form in doubt, chain 2 of 2, further chain): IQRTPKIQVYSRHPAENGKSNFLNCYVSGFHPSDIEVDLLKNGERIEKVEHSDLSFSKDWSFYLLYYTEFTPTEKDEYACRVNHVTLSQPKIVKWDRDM
T3 construct: also called hFcRn

Binder | hTRIM21 binding level ratio (variant/control antibody) [1] | mTRIM21 binding level ratio (variant/control antibody) [2] | hFcRn binding level ratio (variant/control antibody) (human FcRn)
B1 | 0.178 | 1.44 | 0.24
B2 | 0.343 | 0.744 | 1.02
B3 | 0.01 | 0.191 | 0.59
B4 | -0.028 | 0.295 | 0.47
B5 | -0.035 | 0.15 | 0.93
B6 | 1.08 | 2.47 | 0.91
B7 | 0.2 | 1.2 | 0.58
B8 | 0.101 | 1.69 | 0.51
B9 | 0.247 | 0.892 | 0.88
B10 | -0.071 | -0.226 | 0.22
